The record followed here is article PMC8651296, “Conformational dynamics of auto-inhibition in the ER calcium sensor STIM1” (eLife, 2021).

Data set [1] deals with the molecule itself. The experiment in a line: cross-linking; cysteine cross-linking of ctSTIM1 dimers (5 μM) with 300 μM CuSO4 and 900 μM o-phenanthroline, 15 min, room temperature; non-reducing SDS-PAGE, Coomassie.
Data set [2] concerns the molecule itself. Nature of the data set: FRET or BRET; single-molecule FRET (TIRF), symmetric inter-subunit: one cysteine mutant labelled with Alexa Fluor 555 and 647 mixed 1:1; single ctSTIM1 dimers in liposomes tethered by biotin-neutravidin; 20/150 TBS pH 7.4, room temperature. On the technique in general: Bioluminescence resonance energy transfer reports proximity on the nanometre scale.

Data set [3] deals with the molecule itself. Nature of the data set: cross-linking; lysine-lysine cross-linking with BS3 (0, 20, 50 μM; d0 or d4), ctSTIM1 10 μM, 150 mM NaCl, 20 mM HEPES pH 8.0, 30 min, room temperature; SDS-PAGE, monomer and dimer bands read by mass spectrometry.

B1: ctSTIM1 S339C (C437S background) (domain or fragment)
chain: not shown
notes: STIM1, human, cytosolic domain (ctSTIM1), […]; SENLYFQ stays at the C terminus after TEV cleavage; not shown: His6, C-terminal, cleaved
For B1, in data set [1], the binding result is given as “binds”.

B2: ctSTIM1 cysteine mutant at position 309 (N309; C437S background) (domain or fragment)
chain: not shown
modifications: Alexa Fluor 555 or Alexa Fluor 647 on the introduced cysteine
notes: as for B1
For the protein B2, the binding result in data set [2] is on record as “binds”.

B3: ctSTIM1 T307C (C437S background) (domain or fragment)
chain: not shown
modifications: Alexa Fluor 555 or Alexa Fluor 647 on the introduced cysteine in smFRET; disulfide-linked at C307 by CuP before the BS3 treatment
notes: STIM1, human, cytosolic domain (ctSTIM1), […]; SENLYFQ stays at the C terminus after TEV cleavage; also called T307C-d4; not shown: His6, C-terminal, cleaved
With B3, in data set [2], the binding result is listed as “binds”.

B4: ctSTIM1 (full cytosolic domain of STIM1, […]), cysteine-free (C437S) (domain or fragment)
chain: not shown
notes: STIM1, human, cytosolic domain (ctSTIM1), […]; SENLYFQ stays at the C terminus after TEV cleavage; The ctSTIM1 insert carries C437S; also called wild-type ctSTIM1; WT; not shown: His6, C-terminal, cleaved
As for B4, in data set [3], the binding result is “binds”.

B5: ctSTIM1 L248S + L251S (C437S background) (domain or fragment)
chain: not shown
notes: STIM1, human, cytosolic domain (ctSTIM1), […]; SENLYFQ stays at the C terminus after TEV cleavage; also called 2LS; 2LS-d4; not shown: His6, C-terminal, cleaved
As for B5, the binding result in data set [3] is listed as “binds”.

B6: ctSTIM1 R304W (Stormorken mutation; C437S background) (domain or fragment)
chain: not shown
notes: STIM1, human, cytosolic domain (ctSTIM1), […]; SENLYFQ stays at the C terminus after TEV cleavage; R304W occurs in nature; C437S was made; also called R304W-d4; not shown: His6, C-terminal, cleaved
For B6, in data set [3], the binding result was “binds”.
